Test results published in the supplement of paper PMC4604168 (melanoma cell lines).
The other results are listed elsewhere or left out. Most values come without repeats; read them as rough.

Assays:
Assay in all cases: cell count relative to DMSO control; melanoma cells; higher = more viable cells
Conditions in all cases: library dose: standard library concentration; 72 h
[1] = test system: G361
[2] = test system: IPC-298
[3] = test system: IST-MEL1
[4] = test system: LB2518-MEL
[5] = test system: LOXIMVI
[6] = test system: MEL-HO
[7] = test system: MZ2-MEL
[8] = test system: MeWo
[9] = test system: RPMI7951
[10] = test system: RVH-421
[11] = test system: SkMel28
[12] = test system: SkMel2
[13] = test system: SkMel30
[14] = test system: SkMel5
[15] = test system: UACC257
[16] = test system: UACC62
[17] = test system: WM115
[18] = test system: WM1716
[19] = test system: WM1745
[20] = test system: WM3526
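Also: cells treated in 1,536-well plates, then fixed and DAPI-stained, with nuclei counted from automated high-throughput microscope images.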

Row | Compound | cell count [1] [%] | cell count [2] [%] | cell count [3] [%] | cell count [4] [%] | cell count [5] [%] | cell count [6] [%] | cell count [7] [%] | cell count [8] [%] | cell count [9] [%] | cell count [10] [%] | cell count [11] [%] | cell count [12] [%] | cell count [13] [%] | cell count [14] [%] | cell count [15] [%] | cell count [16] [%] | cell count [17] [%] | cell count [18] [%] | cell count [19] [%] | cell count [20] [%]
1 | NC(=O)c1ccc(N(C(N)=O)c2c(F)cccc2F)nc1-c1ccc(F)cc1F + CS(=O)(=O)CCNCc1ccc(-c2ccc3ncnc(Nc4ccc(OCc5cccc(F)c5)c(Cl)c4)c3c2)o1 [lapatinib] (first compound 2 µM, partner dose 4 µM) | 84.1 | 105 | 88.2 | 93.4 | 115 | 80.3 | 81.5 | 71.8 | 64.9 | 75 | 93.8 | 71.3 | 84.1 | 76.6 | 101 | 51.6 | 96.3 | 91.6 | 73 | 77.4
2 | CCCCCCCCc1ccc(CCC(N)(CO)CO)cc1 [fingolimod] + CN1CCN(c2ccc3nc(-c4c(N)c5c(F)cccc5[nH]c4=O)[nH]c3c2)CC1 [Dovitinib] (first compound 10 µM, partner dose 0.5 µM) | 0.256 | 58.2 | 5 | 0.245 | 10.7 | 0.965 | 45.1 | 7.4 | 0.348 | 4.85 | 0.27 | 4.91 | 12.4 | 43.7 | 52.9 | 14 | 12.1 | 45.4 | 6.1 | 19.8
3 | Cc1ccc(NC(=O)c2cccc(N(C)C)c2)cc1NC(=O)c1ccc(O)cc1 + COc1ccc(COc2ccc(Cc3cnc(N)nc3N)cc2OC)cc1 [GW2580] (first compound 10 µM, partner dose 5 µM) | 78.3 | 84.2 | 101 | 136 | 94 | 87 | 81.7 | 79 | 106 | 104 | 66.5 | 91.4 | 69.2 | 76.7 | 83.5 | 94.1 | 106 | 92.8 | 96.8 | 87.3
4 | Cc1ccc(NC(=O)c2cccc(N(C)C)c2)cc1NC(=O)c1ccc(O)cc1 + N#Cc1c(O)c2c(-c3ccc(-c4ccccc4O)cc3)csc2[nH]c1=O [A769662] (first compound 10 µM, partner dose 10 µM) | 95.9 | 90.8 | 93.3 | 112 | 122 | 78.5 | 88.5 | 94.7 | 98.4 | 99.8 | 99.4 | 89.1 | 109 | 112 | 99.2 | 127 | 97.5 | 100 | 72.3 | 94.3
5 | CCc1ccc(CCOc2ccc(CC3SC(=O)NC3=O)cc2)nc1 (stereo not given) [pioglitazone] + CCCCCCCCCCCC1=C(O)C(=O)C=C(O)C1=O [Embelin] (first compound 10 µM, partner dose 6 µM) | 78.3 | 85.4 | 76.2 | 75.2 | 92.1 | 90.8 | 86.1 | 96.4 | 78.7 | 85.2 | 85.6 | 90.9 | 109 | 118 | 79.5 | 117 | 85.9 | 78.3 | 75.2 | 109
6 | NC(=O)c1ccc(N(C(N)=O)c2c(F)cccc2F)nc1-c1ccc(F)cc1F + Cn1cncc1[C@@](N)(c1ccc(Cl)cc1)c1ccc2c(c1)c(-c1cccc(Cl)c1)cc(=O)n2C [tipifarnib] (first compound 2 µM, partner dose 0.05 µM) | 80.1 | 94.3 | 82.3 | 83.7 | 77.7 | 90.2 | 101 | 86.3 | 85.1 | 93.1 | 56.4 | 76.3 | 95.1 | 77.2 | 87.1 | 68.5 | 86.2 | 77.5 | 142 | 81.1
7 | NC(=O)c1ccc(N(C(N)=O)c2c(F)cccc2F)nc1-c1ccc(F)cc1F + COc1cc(Nc2ncc(F)c(Nc3ccc4c(n3)NC(=O)C(C)(C)O4)n2)cc(OC)c1OC [Tamatinib] (first compound 2 µM, partner dose 2 µM) | 78.8 | 98.2 | 73.4 | 107 | 28.1 | 77 | 73.3 | 77.4 | 16.3 | 89.4 | 64.6 | 104 | 115 | 52.1 | 68.8 | 81.2 | 77.5 | 77.9 | 38.3 | 74.4
8 | COc1cc2c(Oc3ccc4[nH]c(C)cc4c3F)ncnc2cc1OCCCN1CCCC1 [cediranib] + N#Cc1c(O)c2c(-c3ccc(-c4ccccc4O)cc3)csc2[nH]c1=O [A769662] (first compound 2 µM, partner dose 10 µM) | 85.7 | 91.5 | 101 | 97 | 88.9 | 79.5 | 96.1 | 77.7 | 82 | 87.4 | 107 | 88.1 | 84.7 | 68.3 | 97.3 | 119 | 96.6 | 87.2 | 83.5 | 87.9
